Experimental data as given in the supplement of paper PMC2702839.
Where a name gives a salt, the structure may show the parent alone. The list shows a part of the results.

test system: Schistosoma mansoni schistosomula; experiment: phenotypic hit in primary schistosomula screen (any phenotype vs DMSO control) (binary (1 = hit, 0 = no phenotype)); higher = active (phenotype induced); settings: 1 µM; time (d): 7

How did the phenotypic hit turn out when `CCN(CC)CCOC(=O)C1(C2CCCCC2)CCCCC1` [dicyclomine hydrochloride] was run?
Its phenotypic hit is inactive: 0.

How did the phenotypic hit turn out when `O=c1cc(-c2ccccc2)oc2c(O)c(O)ccc12` [7,8-dihydroxyflavone] was run?
Its phenotypic hit is inactive: 0.

Which phenotypic hit does the source give for `COc1ccc([C@@H]2CC(=O)c3c(O)cc(O)cc3O2)cc1O` [hesperetin] here?
The phenotypic hit was inactive: 0.

How did the phenotypic hit turn out when `CC1=C(/C=C/C(C)=C/C=C/C(C)=C/C=C/C=C(C)/C=C/C=C(C)/C=C/[C@@]23O[C@]2(C)C[C@@H](O)CC3(C)C)C(C)(C)C[C@H](O)C1` [antheraxanthin] was run?
Its phenotypic hit is inactive: 0.

Which phenotypic hit does the source give for `CC1=C(CCC(=O)O)c2cc3nc(cc4[nH]c(cc5[nH]c(cc1n2)c(C)c5C(C)O)c(C)c4C(C)O)C(C)=C3CCC(=O)O` (stereo not drawn) [haematoporphyrin dihydrochloride] here?
Its phenotypic hit is inactive: 0.

With `CN(C)CCCN1c2ccccc2Sc2ccc(C(F)(F)F)cc21` [triflupromazine hydrochloride] as the compound, how does the phenotypic hit read?
The phenotypic hit was active: 1.

With `O=C1C[C@@H](c2ccccc2)Oc2cc(O)cc(O)c21` [pinocembrin] as the compound, how does the phenotypic hit read?
Its phenotypic hit is inactive: 0.

How did the phenotypic hit turn out when `O=C1c2c(O)cccc2Cc2cccc(O)c21` [anthralin] was run?
Its phenotypic hit is inactive: 0.

`CC(=O)Oc1ccc2c(c1OC(C)=O)OCC1(O)Cc3c(cc(OC(C)=O)c(OC(C)=O)c3OC(C)=O)C21` (stereo not drawn) [haematoxylin pentaacetate] was tested. Which phenotypic hit did it give?
The phenotypic hit was inactive: 0.

`C[C@@H]1C[C@H]2[C@@H]3C[C@H](F)C4=CC(=O)C=C[C@]4(C)[C@@]3(F)[C@@H](O)C[C@]2(C)[C@@]1(O)C(=O)CO` [flumethasone] was tested. Which phenotypic hit did it give?
The phenotypic hit was inactive: 0.

With `CC[C@H](/C=C/[C@@H](C)[C@H]1CC[C@H]2[C@@H]3CC=C4C[C@@H](O)CC[C@]4(C)[C@H]3CC[C@]12C)C(C)C` [stigmasterol] as the compound, how does the phenotypic hit read?
Its phenotypic hit is inactive: 0.

How did the phenotypic hit turn out when `CCCCCCCCCCCCCCCCCCOCC(O)CO` (stereo not drawn) [batyl alcohol] was run?
The phenotypic hit was inactive: 0.

For `COC1=C[C@@H](C)[C@@H]2C[C@H]3OC(=O)C[C@H]4C(C)=C(OC)C(=O)[C@H]([C@@]2(C)C1=O)[C@@]34C` [quassin], which phenotypic hit is on record?
The phenotypic hit was inactive: 0.

How did the phenotypic hit turn out when `CCCCCc1c2c(cc(O)c1C(=O)O)OC(=O)c1c(cc(OC)cc1C(=O)CCCC)O2` [lobaric acid] was run?
The phenotypic hit was inactive: 0.

For `CN1CCN(C2=Nc3ccccc3Oc3ccc(Cl)cc32)CC1` [Loxapine succinate], which phenotypic hit is on record?
Its phenotypic hit is inactive: 0.

For `N=C(NCCCCCCNC(=N)NC(=N)Nc1ccc(Cl)cc1)NC(=N)Nc1ccc(Cl)cc1` [chlorhexidine], which phenotypic hit is on record?
The phenotypic hit was inactive: 0.

With `COc1c2occc2cc2ccc(=O)oc12` [methoxsalen] as the compound, how does the phenotypic hit read?
Its phenotypic hit is inactive: 0.

For `COC(=O)c1cc(O)c(=O)c2c(O)c(O)ccc2c1` [methyl 7-deshydroxypyrogallin-4-carboxylate], which phenotypic hit is on record?
The phenotypic hit was inactive: 0.

`C[C@H](CCC(=O)O)[C@H]1CC[C@H]2[C@@H]3CC[C@H]4C[C@H](O)CC[C@]4(C)[C@H]3C[C@H](O)[C@]12C` [allodeoxycholic acid] was tested. Which phenotypic hit did it give?
The phenotypic hit was inactive: 0.

With `CC(=O)S[C@@H]1CC2=CC(=O)CC[C@]2(C)[C@H]2CC[C@@]3(C)[C@@H](CC[C@@]34CCC(=O)O4)[C@H]12` [spironolactone] as the compound, how does the phenotypic hit read?
Its phenotypic hit is inactive: 0.

`CC(Cc1cccc(C(F)(F)F)c1)NCCOC(=O)c1ccccc1` (stereo not drawn) [benfluorex hydrochloride] was tested. Which phenotypic hit did it give?
The phenotypic hit was inactive: 0.

With `C=C1CC[C@H](O)C/C1=C/C=C1\CCC[C@]2(C)[C@@H]([C@H](C)CCCC(C)C)CC[C@@H]12` [cholecalciferol] as the compound, how does the phenotypic hit read?
The phenotypic hit was inactive: 0.

`NNCCc1ccccc1` [phenelzine sulfate] was tested. Which phenotypic hit did it give?
The phenotypic hit was inactive: 0.

How did the phenotypic hit turn out when `CN1CCN(CC/C=C2/c3ccccc3Sc3ccc(S(=O)(=O)N(C)C)cc32)CC1` [thiothixene] was run?
The phenotypic hit was active: 1.

With `COc1ccc2c(=O)c(OC)c(-c3ccccc3)oc2c1` [3,7-dimethoxyflavone] as the compound, how does the phenotypic hit read?
Its phenotypic hit is inactive: 0.

With `COc1ccc(-c2cc(=O)c3ccccc3o2)cc1` [4'-methoxyflavone] as the compound, how does the phenotypic hit read?
The phenotypic hit was inactive: 0.

For `CC1(C)C(O)CC(O)C2(C)C1CC(=O)C1(C)C2CCC2(C)C(C(=O)O)OC(=O)C3OC321` (stereo not drawn) [dideacetyl (1,3)-7-desacetoxy-7-oxo-deoxykhivorinic acid], which phenotypic hit is on record?
The phenotypic hit was inactive: 0.

For `OC(Cn1cncn1)(Cn1cncn1)c1ccc(F)cc1F` [fluconazole], which phenotypic hit is on record?
Its phenotypic hit is inactive: 0.

With `NCCc1c[nH]cn1` [Histamine dihydrochloride] as the compound, how does the phenotypic hit read?
Its phenotypic hit is inactive: 0.

`CC[N+](C)(C)c1cccc(O)c1` [edrophonium chloride] was tested. Which phenotypic hit did it give?
The phenotypic hit was inactive: 0.

How did the phenotypic hit turn out when `CC(=O)[C@@]1(O)CC[C@H]2[C@@H]3C=C(Cl)C4=CC(=O)[C@@H]5C[C@@H]5[C@]4(C)[C@H]3CC[C@@]21C` [cyproterone] was run?
Its phenotypic hit is inactive: 0.

With `Nc1[nH]cnc2ncnc1-2` [adenine] as the compound, how does the phenotypic hit read?
The phenotypic hit was inactive: 0.

With `Cc1ccc(C(=O)c2ccc(CC(=O)O)n2C)cc1` [tolmetin sodium] as the compound, how does the phenotypic hit read?
Its phenotypic hit is inactive: 0.

For `COC(=O)Nc1nc2cc(C(=O)c3cccs3)ccc2[nH]1` [nocodazole], which phenotypic hit is on record?
Its phenotypic hit is inactive: 0.

With `CCCCN(CCCC)CCCOC(=O)c1ccc(N)cc1` [butacaine] as the compound, how does the phenotypic hit read?
The phenotypic hit was inactive: 0.

With `O=C(O)CN1C(=O)c2cccc3cccc(c23)C1=O` [alrestatin] as the compound, how does the phenotypic hit read?
Its phenotypic hit is inactive: 0.

`CC12CCC3C(CC3(C)C)C(C)(CCC1=O)O2` (stereo not drawn) [3,7-epoxycaryophyllan-6-one] was tested. Which phenotypic hit did it give?
The phenotypic hit was inactive: 0.

Which phenotypic hit does the source give for `CC(=O)OCC(=O)[C@@]1(O)CC[C@H]2[C@@H]3CCC4=CC(=O)CC[C@]4(C)[C@@]3(F)[C@@H](O)C[C@@]21C` [fludrocortisone acetate] here?
Its phenotypic hit is inactive: 0.

Which phenotypic hit does the source give for `CC(=O)O[C@@H]1C[C@H]2C(C)(C)C(=O)CC[C@]2(C)[C@H]2CC[C@@]3(C)[C@H](c4ccoc4)OC(=O)[C@H]4O[C@]43[C@@]21C` [dihydrogedunin] here?
Its phenotypic hit is inactive: 0.

Which phenotypic hit does the source give for `O=C(O)CCCCCCCC(=O)O` [azelaic acid] here?
Its phenotypic hit is inactive: 0.

With `CCCCCCCCCCCCCCCC(=O)OC/C=C(C)/C=C/C=C(C)/C=C/C1=C(C)CCCC1(C)C` [retinyl palmitate] as the compound, how does the phenotypic hit read?
The phenotypic hit was inactive: 0.

Which phenotypic hit does the source give for `COc1ccc(-c2cc(=O)c3c(O)c(OC)c(OC)cc3o2)cc1O` [eupatorin] here?
The phenotypic hit was inactive: 0.

How did the phenotypic hit turn out when `NS(=O)(=O)c1cc(C2(O)NC(=O)c3ccccc32)ccc1Cl` (stereo not drawn) [chlorthalidone] was run?
The phenotypic hit was inactive: 0.

Which phenotypic hit does the source give for `CC(=O)OCC(=O)[C@@]1(O)CC[C@H]2[C@@H]3CCC4=CC(=O)CC[C@]4(C)[C@H]3[C@@H](O)C[C@@]21C` [hydrocortisone acetate] here?
The phenotypic hit was inactive: 0.

With `CC(C)c1c(C(=O)Nc2ccccc2)c(-c2ccccc2)c(-c2ccc(F)cc2)n1CC[C@@H](O)C[C@@H](O)CC(=O)O` [atorvastatin calcium] as the compound, how does the phenotypic hit read?
The phenotypic hit was inactive: 0.

With `C=CCc1ccc(O)c(OC)c1` [eugenol] as the compound, how does the phenotypic hit read?
Its phenotypic hit is inactive: 0.

With `C=CC(N)CCC(=O)O` (racemic) [(±)-gamma-Vinyl GABA] as the compound, how does the phenotypic hit read?
The phenotypic hit was inactive: 0.

`CCn1cc(C(=O)O)c(=O)c2cc(F)c(N3CCNCC3)nc21` [enoxacin] was tested. Which phenotypic hit did it give?
The phenotypic hit was inactive: 0.

For `CCCc1ncc(C[n+]2ccccc2C)c(N)n1` [amprolium], which phenotypic hit is on record?
Its phenotypic hit is inactive: 0.

For `C=CC(C)(O)CCC=C(C)CCC=C(C)C` (mixture of isomers) [nerolidol], which phenotypic hit is on record?
The phenotypic hit was inactive: 0.

How did the phenotypic hit turn out when `O=C(O)CN(CCN(CC(=O)O)CC(=O)O)CC(=O)O.[Na+].[Na+].[Na+]` [trisodium ethylenediamine tetracetate] was run?
Its phenotypic hit is inactive: 0.

For `CC(C(=O)O)c1cccc(Oc2ccccc2)c1` (stereo not drawn) [fenoprofen], which phenotypic hit is on record?
Its phenotypic hit is inactive: 0.

For `CC(=O)N[C@@H](Cc1c[nH]c2ccccc12)C(=O)O` [acetyltryptophan], which phenotypic hit is on record?
The phenotypic hit was inactive: 0.

With `COc1ccccc1-c1coc2cc(O)ccc2c1=O` [7-hydroxy-2'-methoxyisoflavone] as the compound, how does the phenotypic hit read?
The phenotypic hit was inactive: 0.

With `COC(=O)C[C@H]1C(C)(C)[C@@H](O)[C@@H]2CC3=C4C=C(OC)O[C@@H](c5ccoc5)[C@]4(C)CCC3[C@@]1(C)C2=O` (stereo partly drawn) [3-deoxo-3beta-hydroxymexicanolide 16-enol ether] as the compound, how does the phenotypic hit read?
The phenotypic hit was inactive: 0.

With `COc1ccc2c(C)cc(=O)oc2c1` [hymecromone methyl ether] as the compound, how does the phenotypic hit read?
Its phenotypic hit is inactive: 0.

For `O=C1OC(c2ccc(O)cc2)(c2ccc(O)cc2)c2ccccc21` [phenolphthalein], which phenotypic hit is on record?
Its phenotypic hit is inactive: 0.

Which phenotypic hit does the source give for `COc1cc(OC)c2c(=O)cc(-c3ccccc3)oc2c1` [chrysin dimethyl ether] here?
Its phenotypic hit is inactive: 0.

For `CC(C)NCC(O)COc1cccc2ccccc12` (racemic) [(±)-Propranolol hydrochloride], which phenotypic hit is on record?
The phenotypic hit was inactive: 0.

`O=c1cc(-c2ccc(O)cc2)oc2cc(O[C@@H]3O[C@H](CO)[C@@H](O)[C@H](O)[C@H]3O[C@@H]3OC[C@](O)(CO)[C@H]3O)cc(O)c12` [apiin] was tested. Which phenotypic hit did it give?
Its phenotypic hit is inactive: 0.

`CCN(CC)CCCC(C)Nc1ccnc2cc(Cl)ccc12` (stereo not drawn) [Chloroquine phosphate] was tested. Which phenotypic hit did it give?
Its phenotypic hit is inactive: 0.

Which phenotypic hit does the source give for `COc1ccc2c(c1)[C@@]1(C)CCC(=O)C[C@H]1CC2` [5beta-12-methoxy-4,4-bisnor-8,11,13-podocarpatrien-3-one] here?
Its phenotypic hit is inactive: 0.

For `CCCCCC1C(=O)CCC1CC(=O)OC` (stereo not drawn) [dihydrojasmonic acid, methyl ester], which phenotypic hit is on record?
Its phenotypic hit is inactive: 0.

For `CC(C)c1nc(N(C)S(C)(=O)=O)nc(-c2ccc(F)cc2)c1/C=C/[C@@H](O)C[C@@H](O)CC(=O)O` [rosuvastatin], which phenotypic hit is on record?
Its phenotypic hit is inactive: 0.

For `C=C(CC)C(=O)c1ccc(OCC(=O)O)c(Cl)c1Cl` [ethacrynic acid], which phenotypic hit is on record?
The phenotypic hit was inactive: 0.

`Nc1ccc(S(=O)(=O)NC(=O)c2ccccc2)cc1` [sulfabenzamide] was tested. Which phenotypic hit did it give?
Its phenotypic hit is inactive: 0.

For `Oc1ccc2c(c1)OC[C@]1(O)Cc3cc(O)c(O)cc3[C@H]21` [brazilin], which phenotypic hit is on record?
The phenotypic hit was inactive: 0.

With `C=C(C)[C@@H]1CC[C@]2(C(=O)O)CC[C@]3(C)[C@H](CC[C@@H]4[C@@]5(C)CC[C@H](O)C(C)(C)[C@@H]5CC[C@]43C)[C@@H]12` [betulinic acid] as the compound, how does the phenotypic hit read?
Its phenotypic hit is inactive: 0.
